In patent US11903959B2 (EMORY UNIVERSITY, priority 2017, dated 2024):
pEC50: −log10 of the molar value.

Experiments:
Junin virus = type: cell-based; settings: Vero cells, listed as N4-Hydroxycytidine
VEEV = type: cell-based, Venezuelan equine encephalitis virus; settings: Vero76 cells, listed as N4-Hydroxycytidine
WEEV = type: cell-based, Western equine encephalitis virus; settings: Vero76 cells, listed as N4-Hydroxycytidine

## O=c1nc(NO)ccn1C1OC(CO)C(O)C1O (stereo not drawn) [EIDD-1931, 1-(3,4-dihydroxy-5-(hydroxymethyl)tetrahydrofuran-2-yl)-4-(hydroxyamino)pyrimidin-2-one]
Junin virus
  pEC50: 4.68
VEEV
  pEC50: 5.72
WEEV
  pEC50: 6.12
